A collection of fitness landscapes (doi:10.1016/j.celrep.2020.107928)
In all, about 81,000 sequences were measured (“one-hybrid fitness for binding NBS DNA”: median about -0.1, highest 2% from about 0.36 on). This is one part of the list.

B1: Caulobacter ParB omega fusion; a variant is named by its letters at X, in order, B8GW30 (parent)
chain: MESVVVGEPGMSEGRRGLGRGLSALLGEVDAAPAQAPGEQLGGSREAPIEILQRNPDQPRRTFREEDLEDLSNSIREKGVLQPILVRPSPDTAGEYQIVAGERAWRAAQRAGLKTVPIMVRELDDLAVLEIGIIENVQRADLNVLEEALSYKVLMEKFERTQENIAQTIGKSXSHVANXMRLLXLPDEVQSYLVSGELTAXHARAIAAAADPVALAKQIIEGGLSVRETEALARKAPNLSAGKSKGGRPPRVKDTDTQALESDLSSVLGLDVSIDHRGSTGTLTITYATLEQLDDLCNRLTRGI

Variants of: B1
Test: one-hybrid fitness for binding NBS DNA (the Noc-binding site; scaled: cognate 1, non-cognate 0); higher = stronger binding
Conditions: with NBS DNA site
Procedure, shortened: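 Pre- and post-selection plasmids were Illumina-sequenced, three replicate libraries were pooled, and any variant with under 10 reads was removed. The libraries were Caulobacter ParB with four specificity codons randomised, selected in E. coli USO through a HIS3 reporter whose site is 19 bp from the promoter. Cells grew 48 hours at 37°C on M9 without histidine, with 0.1 mM IPTG and 5 mM 3-AT. Fitness is the log change in variant-to-wild-type read ratio, rescaled against cognate and non-cognate.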

| Variant | one-hybrid fitness for binding NBS DNA |
| --- | --- |
| VKLQ | ≤ 0.2 |
| PMVL | ≤ 0.2 |
| QHLE | ≤ 0.2 |
| RIPY | ≤ 0.2 |
| DYGS | ≤ 0.2 |
| IRIC | ≤ 0.2 |
| RATL | ≤ 0.2 |
| RNRH | ≤ 0.2 |
| DYGR | ≤ 0.2 |
| SVMW | ≤ 0.2 |
| LLAE | ≤ 0.2 |
| WPHN | ≤ 0.2 |
| PAWE | ≤ 0.2 |
| RLMR | 0.341 |
| PEMG | ≤ 0.2 |
| CMKL | ≤ 0.2 |
| RVVG | ≤ 0.2 |
| TEAA | ≤ 0.2 |
| CATF | ≤ 0.2 |
| LKHY | ≤ 0.2 |
| KRTV | ≤ 0.2 |
| VEEG | ≤ 0.2 |
| QYIR | 0.346 |
| HATP | ≤ 0.2 |
| ERWC | ≤ 0.2 |

| Variant | one-hybrid fitness for binding NBS DNA |
| --- | --- |
| WMLR | ≤ 0.2 |
| AGLY | ≤ 0.2 |
| MNVT | ≤ 0.2 |
| LWRK | ≤ 0.2 |
| LIRG | ≤ 0.2 |
| YKWS | ≤ 0.2 |
| YSPA | ≤ 0.2 |
| RSYK | ≤ 0.2 |
| FAMC | ≤ 0.2 |
| TGDN | ≤ 0.2 |
| GYEV | ≤ 0.2 |
| EGIR | ≤ 0.2 |
| QQMR | 0.584 |
| RFRT | 0.456 |
| TRMQ | ≤ 0.2 |
| VSWR | ≤ 0.2 |
| CNER | ≤ 0.2 |
| NRST | ≤ 0.2 |
| VRAH | ≤ 0.2 |
| DAYD | ≤ 0.2 |
| VVNG | ≤ 0.2 |
| NHKT | ≤ 0.2 |
| YTPI | ≤ 0.2 |
| AAER | ≤ 0.2 |
| MIIR | ≤ 0.2 |

| Variant | one-hybrid fitness for binding NBS DNA |
| --- | --- |
| MIYR | ≤ 0.2 |
| SAIK | ≤ 0.2 |
| HLVS | ≤ 0.2 |
| KQSR | ≤ 0.2 |
| CLGL | ≤ 0.2 |
| RRTW | ≤ 0.2 |
| SARS | ≤ 0.2 |
| SFTE | ≤ 0.2 |
| CSYC | ≤ 0.2 |
| PLNK | ≤ 0.2 |
| TVGS | ≤ 0.2 |
| DINC | ≤ 0.2 |
| CEER | ≤ 0.2 |
| LLDC | ≤ 0.2 |
| GLQC | ≤ 0.2 |
| PPNP | ≤ 0.2 |
| WRTT | ≤ 0.2 |
| MWTG | ≤ 0.2 |
| GETS | ≤ 0.2 |
| RAMR | 0.341 |
| ERNS | ≤ 0.2 |
| PCGC | ≤ 0.2 |
| VYRS | ≤ 0.2 |
| RTLN | ≤ 0.2 |
| YNAF | ≤ 0.2 |

| Variant | one-hybrid fitness for binding NBS DNA |
| --- | --- |
| CQKR | 0.212 |
| LPEI | ≤ 0.2 |
| RERI | ≤ 0.2 |
| HYTL | ≤ 0.2 |
| TNSW | ≤ 0.2 |
| PRHV | ≤ 0.2 |
| EIHM | ≤ 0.2 |
| RLAM | ≤ 0.2 |
| HRDW | ≤ 0.2 |
| GMLR | ≤ 0.2 |
| CGHT | ≤ 0.2 |
| HDNK | ≤ 0.2 |
| RRSL | ≤ 0.2 |
| QVLF | ≤ 0.2 |
| LCIW | ≤ 0.2 |
| EEAG | ≤ 0.2 |
| PSPK | ≤ 0.2 |
| RNFC | ≤ 0.2 |
| ESKV | ≤ 0.2 |
| QLTK | ≤ 0.2 |
| RENR | ≤ 0.2 |
| CEST | ≤ 0.2 |
| LTLC | ≤ 0.2 |
| EYSC | ≤ 0.2 |
| YADT | ≤ 0.2 |

| Variant | one-hybrid fitness for binding NBS DNA |
| --- | --- |
| WSGV | ≤ 0.2 |
| YLSK | ≤ 0.2 |
| TKTL | ≤ 0.2 |
| RGAS | ≤ 0.2 |
| RNQH | ≤ 0.2 |
| SQMG | ≤ 0.2 |
| LARG | ≤ 0.2 |
| TYNN | ≤ 0.2 |
| NNSM | ≤ 0.2 |
| TFPE | ≤ 0.2 |
| WHHR | ≤ 0.2 |
| IVYS | ≤ 0.2 |
| AIGT | ≤ 0.2 |
| VCPS | ≤ 0.2 |
| DPQI | ≤ 0.2 |
| RWTI | ≤ 0.2 |
| QICI | ≤ 0.2 |
| KLND | ≤ 0.2 |
| LPTR | ≤ 0.2 |
| TGKR | ≤ 0.2 |
| PFAA | ≤ 0.2 |
| SEMK | ≤ 0.2 |
| CLTK | ≤ 0.2 |
| VYYC | ≤ 0.2 |
| GTMM | ≤ 0.2 |

| Variant | one-hybrid fitness for binding NBS DNA |
| --- | --- |
| GNLS | ≤ 0.2 |
| QEWT | ≤ 0.2 |
| MGMT | ≤ 0.2 |
| TTMC | ≤ 0.2 |
| WVAC | ≤ 0.2 |
| QAKY | 0.531 |
| QNER | 0.212 |
| THAR | ≤ 0.2 |
| GQWG | ≤ 0.2 |
| HRRG | ≤ 0.2 |
| IGRW | ≤ 0.2 |
| GPLI | ≤ 0.2 |
| CPAM | ≤ 0.2 |
| QAYT | 0.322 |
| SGSV | ≤ 0.2 |
| TWDE | ≤ 0.2 |
| IVNW | ≤ 0.2 |
| DIPP | ≤ 0.2 |
| QFFG | 0.554 |
| NAPQ | ≤ 0.2 |
| IMKR | 0.283 |
| HLNN | ≤ 0.2 |
| TQIG | ≤ 0.2 |
| AGKF | ≤ 0.2 |
| FWDR | ≤ 0.2 |

| Variant | one-hybrid fitness for binding NBS DNA |
| --- | --- |
| THNG | ≤ 0.2 |
| NDGD | ≤ 0.2 |
| DAGI | ≤ 0.2 |
| NVLR | ≤ 0.2 |
| QPKF | ≤ 0.2 |
| RIGS | 0.369 |
| PMSS | ≤ 0.2 |
| ASAV | ≤ 0.2 |
| KNFS | ≤ 0.2 |
| PMQS | ≤ 0.2 |
| RSGS | 0.419 |
| RFAY | ≤ 0.2 |
| SAWM | ≤ 0.2 |
| NKAW | ≤ 0.2 |
| SKKR | 0.213 |
| TREE | ≤ 0.2 |
| QLKP | ≤ 0.2 |
| TNSL | ≤ 0.2 |
| KRAV | ≤ 0.2 |
| WRCT | ≤ 0.2 |
| PLPL | ≤ 0.2 |
| YKES | ≤ 0.2 |
| ITPR | ≤ 0.2 |
| QATC | ≤ 0.2 |
| LQLT | ≤ 0.2 |

| Variant | one-hybrid fitness for binding NBS DNA |
| --- | --- |
| PGES | ≤ 0.2 |
| QYSK | ≤ 0.2 |
| QKYV | ≤ 0.2 |
| HHWT | ≤ 0.2 |
| PLRH | ≤ 0.2 |
| DEDT | ≤ 0.2 |
| HDPL | ≤ 0.2 |
| LPVW | ≤ 0.2 |
| LPTK | ≤ 0.2 |
| FQNL | ≤ 0.2 |
| NLAD | ≤ 0.2 |
| HMNE | ≤ 0.2 |
| YVRD | ≤ 0.2 |
| KLSS | ≤ 0.2 |
| RPSN | ≤ 0.2 |
| GLMT | ≤ 0.2 |
| FCNV | ≤ 0.2 |
| PPTA | ≤ 0.2 |
| KHQF | ≤ 0.2 |
| VTVM | ≤ 0.2 |
